The supplement of paper PMC3334620
Whole data set: some 33,000 sequences, median “E-score (-0.5 to 0.5)” near -0.041, cut for the highest 2% near 0.37. Some of the results follow.

Molecular target: T1, Ecm22 (UniProt Q05958)
T1 sequence: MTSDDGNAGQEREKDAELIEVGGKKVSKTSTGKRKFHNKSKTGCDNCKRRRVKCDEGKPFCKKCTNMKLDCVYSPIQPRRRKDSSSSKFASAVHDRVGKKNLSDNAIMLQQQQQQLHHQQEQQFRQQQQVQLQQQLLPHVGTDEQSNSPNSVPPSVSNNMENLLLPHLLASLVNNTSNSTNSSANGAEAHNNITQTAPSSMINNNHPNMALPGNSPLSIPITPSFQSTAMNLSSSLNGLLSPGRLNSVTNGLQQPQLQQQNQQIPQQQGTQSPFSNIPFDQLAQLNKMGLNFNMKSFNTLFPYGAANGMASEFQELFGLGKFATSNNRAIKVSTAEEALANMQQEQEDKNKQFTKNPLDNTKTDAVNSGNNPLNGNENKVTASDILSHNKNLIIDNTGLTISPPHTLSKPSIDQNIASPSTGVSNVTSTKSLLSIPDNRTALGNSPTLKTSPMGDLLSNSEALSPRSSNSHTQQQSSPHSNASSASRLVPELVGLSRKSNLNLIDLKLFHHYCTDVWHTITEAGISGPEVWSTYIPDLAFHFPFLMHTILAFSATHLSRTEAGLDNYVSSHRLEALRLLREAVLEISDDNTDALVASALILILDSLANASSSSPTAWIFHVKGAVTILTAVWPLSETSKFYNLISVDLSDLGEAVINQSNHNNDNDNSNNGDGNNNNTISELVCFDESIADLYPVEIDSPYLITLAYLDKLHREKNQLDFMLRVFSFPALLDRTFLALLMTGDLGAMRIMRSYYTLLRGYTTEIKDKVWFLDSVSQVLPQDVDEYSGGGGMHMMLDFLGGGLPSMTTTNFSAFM
Test: PBM E-score (8-mer binding enrichment) (E-score (-0.5 to 0.5)); higher = stronger / more preferred TF binding; most listed sequences are background and not binding sites
Settings: protein concentration: 200 nM; construct: GST-full length
Procedure, shortened: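 GST-tagged yeast TFs (full-length or DNA-binding domain) were made by PURExpress in vitro transcription/translation and applied at about 100-200 nM to universal all-10-mer Agilent arrays. The arrays were made double-stranded by primer extension, on fresh or once-stripped slides. Bound protein was detected with fluorescent anti-GST, and scans were normalised with masliner. Each ungapped eight-base word, pooled with its reverse complement, received an E-score (modified Wilcoxon-Mann-Whitney statistic) from the Universal PBM Analysis Suite.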

Sequence | PBM E-score
GAGTAGCA | -0.155
ATGTTTGC | -0.171
TCGTTCCA | 0.475
ATTAAAGA | -0.0129
ACATCGTA | 0.423
AGTACTGG | -0.0671
ACATACGA | 0.466
TCCGTGCA | -0.0975
GTGATGGA | -0.166
TAGTCCAA | -0.157
AGGCCTGG | -0.197
ACACAGCG | 0.159
CGTTCCAC | 0.405
CGCGTCGA | 0.06
ACAGCACG | 0.14
AAAGGCAC | -0.164
CGGCCTAG | -0.225
CTAAAACC | -0.234
ACTACTCA | -0.15
ACGTACGT | 0.245
ACCGAGCG | 0.292
ATCATTTC | -0.00419
ATACAACG | 0.118
AGTACAAG | 0.0646
AACACCAA | -0.0923

Sequence | PBM E-score
ACCTTCCG | 0.0688
AAATGCCC | -0.254
ACGATTTG | 0.287
CTATTAGC | 0.0694
AACTGGGT | -0.203
AATTTTAA | 0.0521
CTGGCTTA | -0.148
GGTTCGCA | 0.198
GGTAAAGA | -0.00696
CTGTACCC | -0.187
ATTAAATG | -0.142
GCGGTGCA | -0.0592
ATAGCCAA | 0.106
AATGAGTA | 0.0998
CGTCTGAA | -0.102
AATGGCCT | -0.13
GGATGGAA | 0.0542
CACTGGAG | -0.259
AGGAGCCT | -0.308
ACAGCGTC | -0.0393
ATCAGCAG | -0.0742
CGGACGCC | -0.0374
GCTTGGGA | -0.209
ACATCCGG | 0.0185
ACACTCCC | -0.135

Sequence | PBM E-score
CATTTTCA | -0.131
GGTCCGTA | 0.331
CAGGAATA | -0.182
ATTTAATC | -0.0655
TTCCGAAA | 0.0364
CCAAGTTA | -0.292
ATCATAAA | -0.14
GGGTCCAA | 0.0472
GGAATAAA | -0.103
CGGACCTA | 0.0489
TAAGTACA | 0.0495
ATGTGGGC | -0.206
CATTACGC | -0.0121
CACAGCTA | -0.046
CGATAGGA | 0.1
ACGGACGG | 0.134
AATCCCAC | -0.18
GCTCCAGA | -0.117
CCCCAGCC | -0.0203
CGTCGCCC | -0.122
CAAGATAC | 0.0457
CAGGTGGG | -0.161
ATAAGCAT | 0.0258
ATGTATAA | 0.0604
ATGGAAGA | -0.155

Sequence | PBM E-score
AAGCGATG | 0.205
TGGGCCAA | -0.138
GAAAACAA | -0.0401
GGAGATTA | -0.152
CTATCTCC | -0.209
AGCCGACA | -0.0971
TGAACGCA | 0.0733
CGGTGATC | -0.0864
AATCTTCG | 0.197
ACGGCTGA | 0.00758
AATCCTCC | -0.0866
CCTTCTTC | -0.107
AGCGACAC | 0.229
AACTGTCG | 0.154
AAGCGCCG | -0.0555
CCAACAAC | 0.0154
GATCTTGA | -0.0293
GGACGAAA | 0.108
AAAGTTGA | -0.0947
CCTCTACA | -0.158
ATGTTTGG | 0.00241
AGGCTCAC | -0.191
GACCCCCC | -0.167
ATACTTCG | 0.18
CTTCGGAA | 0.163

Sequence | PBM E-score
CACTTAAA | -0.129
AGCATTTC | -0.125
TAAAAGCA | 0.0355
AGAATAAT | -0.0371
AGGCCACC | -0.0477
TCTTGGAA | -0.0708
CATAATAC | 0.161
TCAAAGAA | -0.0967
ATTCTAGC | -0.164
CAGATATG | 0.0146
GTGGGTTA | -0.0771
GAAGGGTA | 0.0433
GCATTGGA | -0.163
GCCATGCC | -0.105
ATACTAAT | 0.065
CGGTTGCC | 0.0445
TATCTTCA | 0.116
CGGAATAG | -0.0923
AATGTTAG | 0.0051
GCTCCTGA | -0.174
CACAAGCG | 0.028
GAGAGAAC | -0.0496
CGCAGGGC | 0.0788
ACTGGAAT | -0.232
CACAACTA | 0.105

Sequence | PBM E-score
ACGGCCAC | -0.0659
ATGGTTGA | -0.269
AATTCAGG | 0.00191
CGCGTGGC | -0.0813
CTCACAAA | -0.116
GGTGCTAA | 0.0163
AATCAATG | 0.0975
GTGTGAGA | -0.128
AATCTACG | 0.143
CAGTGTAC | 0.155
TAACAATA | 0.0544
CATTTTGA | -0.0977
CGACCCCG | -0.0356
CGCTTAAA | 0.278
AGACTACG | -0.0604
GAGGCTCA | -0.237
AAATATAG | -0.00859
GCATACAC | 0.0458
CTCCCAGC | -0.0732
CCTTTATC | -0.0497
TAAGGATA | 0.00857
ATTATTCA | -0.151
GCTGGGAA | 0.0268
ATCTCTCA | -0.186
TAAGTGTA | 0.103

Sequence | PBM E-score
TTAGCCAA | -0.044
TAACAGAA | -0.0719
CGCACCCC | -0.0698
CGTAACGA | 0.338
CGTTCGCA | 0.268
CCGGGTAG | -0.0969
ACTGCGGC | 0.0118
CCCATACA | -0.32
ACCTAAAC | 0.222
ATGCCTGG | -0.215
GCTACGTA | 0.265
ACTTGCAT | 0.037
ACAGCGGG | -0.0562
ATTGCAGC | -0.0429
CATAGGAC | -0.091
CAGAACGA | 0.379
AGATCGCC | 0.141
ATCCTAGC | -0.123
AGAAACCA | -0.0581
GGGGAAAA | -0.0524
GTTCTACA | 0.0069
CGGCTGCA | 0.0404
